Laboratory results taken from ChEMBL document CHEMBL1201862, “PubChem BioAssay data set” (2004).

What follows are compounds tested on NCI-H322M (assay: inhibition of tumour cell growth, NCI panel, 48 h).

Structure (SMILES) | GI50
CCN(CC)C1Oc2cc3c(cc2C(c2cccc(OC)c2O)C1C)OCO3 (configuration not stated) | inactive: 4.88 µM
COc1ccc(/C=C2/CSC/C(=C/c3ccc(OC)c(OC)c3)C2=O)cc1OC | inactive: 5.56 µM
COc1ccc(NC(=O)CSc2nnc(Cc3ccccc3)o2)cc1 | inactive: > 100 µM
Cc1ccc(S(=O)(=O)NNCNC(=O)c2ccccc2)cc1 | inactive: > 100 µM
Cc1nc2c(n1CCC(C)C)C(=O)c1ccccc1C2=O | inactive: 35.7 µM
CC(C)=CCC[C@@H](C)C1=C(O)C(=O)C(C)=C(Nc2ccccc2Cl)C1=O | inactive: 21.2 µM
O=C(Nc1ccccc1)OC1OC(COC(=O)c2ccccc2)C(OC(=O)c2ccccc2)C1OS(=O)(=O)c1ccc([N+](=O)[O-])cc1 (configuration not stated) | inactive: 93.5 µM
NC(CCCCCP(=O)(c1ccccc1)C1C=CC=CC1)C(=O)O (configuration not stated) | inactive: > 100 µM
CC1NCCC(CC(=O)O)C1CC(=O)O (configuration not stated) | inactive: > 100 µM
COc1c(Cl)cc(S(=O)O)cc1Cl | inactive: > 100 µM
CC(C)(C)OC(=O)NCC(c1c[nH]c2cc(Br)ccc12)c1c[nH]c2cc(Br)ccc12 | inactive: 17.1 µM
O=[N+]([O-])C(Cl)C(Cl)C(Cl)=C(Cl)Cl (configuration not stated) | inactive: 52.8 µM
COc1ccc(COC2CC(OC)OC(C)C2OC(=O)c2ccccc2)cc1 (configuration not stated) | inactive: > 100 µM
CC(C)NC(=O)OCc1c(COC(=O)NC(C)C)c(-c2ccc[n+](COC(=O)C(C)(C)C)c2)n2c1CCC2 | inactive: > 100 µM
CC1SC2=NC3=C(c4ccccc4C3=O)C(c3ccc(Br)cc3)N2C1=O (configuration not stated) | inactive: > 100 µM
COC(=O)[C@H](CC(C)C)NC(=O)[C@H](Cc1ccccc1)N1CC2C=CC1C2 (some centres not stated) | inactive: > 100 µM
Cc1cc(S(=O)(=O)Nc2nc(N)n(-c3ccccn3)n2)c(S)cc1Cl | inactive: > 100 µM
CC1(C(=O)Nc2ccc3ccccc3c2)CC2(C)CC(C)(C1)C(O)NC2=O (configuration not stated) | inactive: > 100 µM
CN(c1ccccc1Cl)S(=O)(=O)c1ccccc1[N+](=O)[O-] | inactive: > 100 µM
CC(=O)Oc1cc(OC(C)=O)c2c(C)cc(=O)oc2c1 | inactive: > 100 µM
O=C(NC(OCc1ccccc1)(C(F)(F)F)C(F)(F)F)OCc1ccccc1 | inactive: 17.2 µM

Structure (SMILES) | GI50
OCCc1ccsc1-c1sc(-c2cc(CCO)c(-c3sc(-c4cc(CCO)c(-c5sccc5CCO)s4)cc3CCO)s2)cc1CCO | inactive: 1.27 µM
O=[N+]([O-])/C(C(Cl)=C(Cl)Cl)=C(/Nc1cccc2cccnc12)n1nnc2ccccc21 | inactive: 20.9 µM
CC(=O)c1ccc(Br)cc1NC1=CC(=O)c2ncccc2C1=O | active: 0.693 µM
Cc1ccc(S(=O)(=O)N/N=C/c2oc(-c3ccncc3)c(-c3ccncc3)c2[N+](=O)[O-])cc1 | inactive: > 100 µM
CCOc1cc(NC(C)=O)ccc1C(=O)NN1C(=O)C(Cl)C1c1ccccc1 (configuration not stated) | inactive: 14.1 µM
CC1(C)CC2(C)CC1CC2(O)c1ccccc1 (configuration not stated) | inactive: > 100 µM
O=P(O)(O)CN1CCNCCN(CP(=O)(O)O)CCN(CP(=O)(O)O)CCNCC1 | inactive: > 100 µM
COC(=O)C1=C(C(=O)OC)C(OO)(c2ccccc2)OC1=O (configuration not stated) | inactive: 61.1 µM
N#Cc1c(N)c2c(c(-c3ccccc3)c1-c1ccccc1)C(=O)N(N)C2=O | inactive: > 100 µM
CC1=C(C(=O)NCc2ccccc2)C(c2ccc(N(C)C)cc2)C(C(=O)NCc2ccccc2)=C(C)N1 | inactive: > 100 µM
O=[N+]([O-])/C(C(Cl)=C(Cl)Cl)=C1\Nc2ccc([N+](=O)[O-])cc2N1 | inactive: > 100 µM
CC(=O)OC1CC(O)CC2=CCC3C4CCC(C(C)(O)C(O)CC5COC(=O)C5C)C4(C)CCC3C21C (configuration not stated) | inactive: > 25 µM
CC(C)C1CC(O)O[C@@H]([C@@H](C)[C@H]2CC(=O)[C@@H]3[C@@H]4[C@@H](O)[C@H](O)[C@H]5[C@@H](O)[C@H](O)CC[C@]5(C)[C@H]4CC[C@]23C)C1 (some centres not stated) | inactive: 59 µM
CC(C)=CC[C@H]1C[C@]2(CC=C(C)C)C(=O)[C@@](CC=C(C)C)(C(=O)C(C(=O)c3ccccc3)=C2O)C1(C)C [6-EPI-CLUSIANONE] | inactive: 5.98 µM
CN1CCOC(c2ccccc2)O1 (configuration not stated) | inactive: > 100 µM
COc1cc(-c2oc3c(OC)c(O)c(OC)c(O)c3c(=O)c2OC)cc(OC)c1OC | inactive: > 100 µM
COc1cc(-c2[o+]c3cc(O)cc(OC4OC(CO)C(O)C(O)C4O)c3cc2OC2OC(CO)C(O)C(O)C2O)cc(OC)c1O (configuration not stated) | inactive: > 100 µM
CC(C)CCC[C@@H](C)[C@H]1CC[C@H]2[C@@H]3CC=C4CC(OCCCCN(O)CCCSC5OC(CO)C(O)C(O)C5O)CC[C@]4(C)[C@H]3CC[C@]12C (some centres not stated) | inactive: 71.3 µM
CCOC(=O)C1=C(C)C2C=C(c3cccs3)CC(c3ccc(Cl)cc3)=C2OC1=O (configuration not stated) | inactive: > 100 µM
NC(=O)NC(=O)c1cccc(NC(=O)CI)c1 | active: 0.448 µM
Cc1ccnc2nc(-c3ccc(Cl)cc3)cc(O)c12 | inactive: 4.94 µM

Structure (SMILES) | GI50
N#CC(C#N)SCc1ccccc1 | inactive: > 65.9 µM
Cc1cc(O)c(C(c2ccncc2)c2c(O)cc(C)[nH]c2=O)c(=O)[nH]1 | inactive: > 100 µM
O=C(N/N=C1\C(=O)Nc2ccc(Br)cc21)/C(O)=C/C(=O)c1ccc(Cl)cc1 | inactive: > 100 µM
Cc1ccc(C(=O)/C=C2\Nc3c(c(=O)oc4ccccc34)N=C2NC23CC4CC(CC(C4)C2)C3)cc1 | inactive: > 100 µM
Cc1ccc(/C(Cl)=C/C=C(C#N)C#N)cc1 | inactive: 12.6 µM
Cn1c(S)nc2c(Cl)cc(Cl)cc2c1=O | inactive: > 100 µM
O=C1C[C@@H]2C(COC(=O)c3ccccc3)N(OCc3ccccc3)C[C@@H]2O1 (some centres not stated) | inactive: > 100 µM
CC(C)(C)NC(=O)C12C3C4C1C1C2C3C41I (configuration not stated) | inactive: > 100 µM
COC(=O)C(=O)C(C(=O)C=C(C)C)C(=O)C(=O)Nc1ccc(C)cc1C (configuration not stated) | inactive: > 100 µM
O=c1[nH]cc(/N=C/c2cc(Cl)ccc2O)c(=O)[nH]1 | inactive: 30.1 µM
CCSc1cc2c(cc1O)CC[C@@H]1[C@@H]2CC[C@]2(C)[C@@H](O)CC[C@@H]12 | inactive: 16.9 µM
COC(=O)[C@H](Cc1c[nH]c2ccccc12)NC(=O)c1ccc(CNC(=O)/C=C/c2cccc(Oc3ccccc3)c2)cc1 | inactive: > 100 µM
C/C(=N\N=C(/S)N(C)C)c1cccc[n+]1[O-] | inactive: 11.5 µM
O=C(O)c1ccc2c(c1)CC1(C2)Cc2ccccc2C1=O (configuration not stated) | inactive: > 100 µM
NC1=NC(=O)[C@H](CSCc2ccccc2)N1C(=O)OCc1ccccc1 | inactive: > 100 µM
CCCCC(=O)Nc1ccc2cc(C(=O)OC)c(=O)[nH]c2n1 | inactive: > 100 µM
COC(=O)C(COC(=O)/C=C/c1ccc(OC(C)=O)c(OC(C)=O)c1)OC(=O)/C=C/c1ccc(OC(C)=O)c(OC(C)=O)c1 (configuration not stated) | inactive: 12 µM
CC1(C)Oc2ccccc2OC1O (configuration not stated) | inactive: > 100 µM
C/C(=N\N(C)C)C(CN(C)C)C(c1ccccc1)c1c(O)c2ccccc2oc1=O (configuration not stated) | inactive: > 100 µM
CCOc1ccc(NCC2CC/C(=C\c3ccc(O)cc3)C2=O)cc1 (configuration not stated) | inactive: 44 µM

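How tested: cells in 96-well plates exposed to compound for 48 hours at five concentrations. GI50 marks 50% less growth.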 Activity calls are given as the source filed them. Cut-off read from the data, not from the text of the source: active = GI50 up to about 1.1 µM and inactive = higher.
